In PubChem BioAssay AID2675 (National Center for Advancing Translational Sciences (NCATS), 2010):
The campaign covered roughly 280,000 compounds. About 100 (0.036%) were called active. Inconclusive results, whose numbers are uncertain, are shown with a selection of clear calls. Calls come from the whole dose curve; as a rule, active = well fitted inhibition curve with a large enough effect in the signal ratio, with a control signal flat (not every such curve was filed as active); inconclusive = small, poorly fitted or top-dose-only effect, or effect the other way, or a change in a side signal; inactive = no such curve, though single readings can be large or run the other way; the % refers to the signal ratio. Potencies beside an inconclusive call are fits to weak or partial responses and may not hold up. “Side channel” marks fits to a control or component signal instead of the main read-out.

target: Muscleblind-like protein 1 (Homo sapiens) (UniProt Q9NR56); test: qHTS Assay for Inhibitors of MBNL1-poly(CUG) RNA binding; conditions: TR-FRET MBNL1-His/biotin-(CUG)12 binding, 665/545 ratio; activity change, negative = inhibition: at 57.5 µM (top of the series)
Method in brief: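 His-tagged MBNL1 binding to biotinylated (CUG)12 RNA was measured by TR-FRET using terbium anti-His antibody (0.055 ng/ul final) and streptavidin-XL665 (5 nM final). Compounds were titrated 92 nM to 58 uM; 60 min at room temperature.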
% is set by controls: 0 for no effect and ±100 for the full control effect; potency is the fitted concentration of half-maximal effect; tags give direction and shape of the fitted curve or compound fluorescence and quenching.

Sequence of UniProt Q9NR56 (Q9NR56 whole entry, looked up): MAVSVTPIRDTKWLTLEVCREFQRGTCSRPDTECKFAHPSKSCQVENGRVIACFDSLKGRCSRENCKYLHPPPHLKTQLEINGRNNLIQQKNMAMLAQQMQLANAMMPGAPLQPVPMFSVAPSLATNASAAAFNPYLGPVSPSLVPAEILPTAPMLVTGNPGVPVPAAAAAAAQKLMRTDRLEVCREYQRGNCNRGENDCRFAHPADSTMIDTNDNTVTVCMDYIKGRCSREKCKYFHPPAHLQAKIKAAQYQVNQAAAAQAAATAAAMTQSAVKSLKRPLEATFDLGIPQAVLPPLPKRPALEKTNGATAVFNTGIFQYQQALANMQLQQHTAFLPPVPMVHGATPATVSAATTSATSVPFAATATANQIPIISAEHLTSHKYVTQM

| Structure (SMILES) | Potency | activity change, negative = inhibition |
| --- | --- | --- |
| Cc1noc(NS(=O)(=O)c2ccc(N/C=C\C(=O)c3ccc4c(c3)OCO4)cc2)c1C | inconclusive: 25.1 µM [quencher, side channel, partial curve] | – |
| Cc1cccc(CC(=O)NCC(=O)NCc2cc(=O)n(C)c(=O)n2C)c1 | – | inactive: -7.31% |
| Cc1nn(C)c(C)c1N=Cc1c(O)ccc2ccccc12 | inconclusive: 28.2 µM [quencher, side channel, single point] | – |
| Cc1cc(/C=C(\C#N)C(=O)NCC2CCCO2)c(C)n1-c1ccc(Cl)cc1 (centres undefined) | inconclusive: 20 µM [quencher, side channel, single point] | – |
| O=C1c2ccccc2C(=O)N1OCc1ccccc1 | inconclusive: 25.1 µM [quencher, side channel, partial curve] | – |
| CCCCCC(=O)Nc1ccc2ccccc2c1 | inconclusive: 14.1 µM [quencher, side channel, partial curve, poor fit] | – |
| Cc1nc2ccccn2c(=O)c1CCN1CCC(C(=O)c2ccc(F)cc2)CC1 | inconclusive: 20 µM [quencher, side channel, partial curve, poor fit] | – |
| COc1ccc(Nc2ccc([N+](=O)[O-])cc2[N+](=O)[O-])cc1 | inconclusive: 12.6 µM [quencher, side channel, partial curve] | – |
| Cc1ccc(C(=O)N/N=C\C=C\c2ccccc2[N+](=O)[O-])cn1 | inconclusive: 15.8 µM [quencher, partial curve] | – |
| Clc1c(-c2nnc3n2CCC3)sc2ccccc12 | inconclusive: 17.8 µM [quencher, side channel, partial curve] | – |
| O=[N+]([O-])c1ccc(-c2ccc(/C=N/Nc3nc(NCc4ccccc4)nc(N4CCOCC4)n3)o2)cc1 | inconclusive: 28.2 µM [quencher, single point] | – |
| CCN(CC)CCNC(=O)c1ccc(N2CCCCC2)c(NS(=O)(=O)c2ccc(C)cc2)c1 | inconclusive: 28.2 µM [quencher, side channel, single point] | – |
| CC1CCCN(C(=O)c2cc3c(=O)n4ccccc4nc3s2)C1 (centres undefined) | inconclusive: 8.91 µM [quencher, side channel, partial curve] | – |
| COc1ccc(NC(=O)CN2c3cccc4cccc(c34)S2(=O)=O)cc1 | inconclusive: 17.8 µM [quencher, side channel, partial curve] | – |
| Cc1oc2c(c1C(=O)N1CCOCC1)C(=O)c1ccccc1C2=O | inconclusive: 2.51 µM [quencher, side channel, full curve] | – |
| O=C(Nc1nc2c(s1)CCCC2)c1ccc2ncsc2c1 | – | inactive: -21.1% |
| S=c1[nH]nc(CCc2ccccc2)n1-c1ccccc1 | – | inconclusive: -10.9% [phenotype inactive] |
| Cc1cccc(C(=O)NC(=S)Nc2ccc(S(=O)(=O)N(C)c3ccccc3)cc2)c1 | – | inactive: -5.93% |
| Cc1ccc(NC(=O)COC(=O)COc2ccc(Cl)cc2C)c([N+](=O)[O-])c1 | inconclusive: 17.8 µM [quencher, side channel, partial curve] | – |
| O=C(N/N=C/C=C\c1ccccc1[N+](=O)[O-])c1ccncc1 | inconclusive: 15.8 µM [quencher, side channel, partial curve] | – |

| Structure (SMILES) | Potency | activity change, negative = inhibition |
| --- | --- | --- |
| NC(=O)CC(NC(=O)c1ccccc1)c1ccc(NCCc2cccc(F)c2)c([N+](=O)[O-])c1 (centres undefined) | inconclusive: 14.1 µM [quencher, side channel, partial curve] | – |
| CCN1CCN(Cc2nc3cc(NC(=O)COc4ccc([N+](=O)[O-])cc4)ccc3n2C)CC1 | inconclusive: 17.8 µM [quencher, side channel, partial curve] | – |
| COc1cc(/C=C/C(=O)OCC(=O)NC2CC2)cc(S(=O)(=O)N2CCc3ccccc32)c1OC | inconclusive: 39.8 µM [quencher, side channel, single point] | – |
| O=C(Nc1ccccc1)c1ccc2nsnc2c1 | inconclusive: 5.62 µM [quencher, side channel, partial curve] | – |
| CCOc1ccc(-c2cc(C(=O)NCC3CCCO3)c3ccccc3n2)cc1 (centres undefined) | inconclusive: 12.6 µM [quencher, side channel, partial curve] | – |
| CCCCNC(=O)c1ccc(Cn2c(=S)[nH]c3c([nH]c4ccc(OC)cc43)c2=O)cc1 | – | inactive: 13.2% |
| Cc1ccc(S(=O)(=O)Nc2cc(C)cn(Cc3ccc(F)cc3)c2=O)cc1 | – | inactive: 8.28% |
| Cc1ccc(C)n1NC(=O)c1ccc([N+](=O)[O-])cc1 | inconclusive: 15.8 µM [quencher, side channel, partial curve] | – |
| Cn1nc(C(=O)Nc2nc3ccc(S(C)(=O)=O)cc3s2)ccc1=O | inconclusive: 17.8 µM [quencher, side channel, partial curve] | – |
| C/C=C\C=C\C(=O)Nc1cccc(C2=NOC3(C2)C[C@H](C(N)=O)N(C(=O)c2ccccc2C(=O)c2ccccc2)C3)c1 (some centres undefined) | inconclusive: 22.4 µM [quencher, side channel, partial curve] | – |
| COc1ccc(CCNC(=O)CCN2C(=O)COc3ccccc32)cc1OC | – | inactive: 2.34% |
| Cc1nn(C)cc1/C=C(/C#N)C(N)=O | inconclusive: 0.631 µM [quencher, side channel, full curve, poor fit] | – |
| CCOC(=O)Cc1ncccc1C(=O)Nc1ccc(OC)cc1 | inconclusive: 15.8 µM [quencher, side channel, partial curve] | – |
| CCOP(=O)(OCC)C(NC(=O)c1cc([N+](=O)[O-])cc([N+](=O)[O-])c1)C(F)(F)F (centres undefined) | inconclusive: 14.1 µM [quencher, side channel, partial curve] | – |
| Cc1cc2c(cc1C)[n+](C)cn2CC(O)COCc1ccccc1 (centres undefined) | – | inactive: 5.1% |
| Cc1ccc(C(=O)Nc2ccc3c(c2)OCO3)cc1Cl | inconclusive: 35.5 µM [fluorescent, single point] | – |
| CCOC(=O)c1ccccc1NS(=O)(=O)c1ccc(OC)cc1 | inconclusive: 2 µM [fluorescent, side channel, partial curve] | – |
| CN(C(=O)CN1C(=O)S/C(=C\c2ccc(Cl)cc2)C1=O)C1CCS(=O)(=O)C1 (centres undefined) | inconclusive: 10 µM [quencher, side channel, full curve, poor fit] | – |
| CC(=O)CC(C)(C)Nc1nc2cc([N+](=O)[O-])ccc2o1 | inconclusive: 17.8 µM [quencher, partial curve] | – |
| Cc1cccc(/C=N\N=C\c2cccc(C)c2)c1 | – | inactive: 1.86% |

| Structure (SMILES) | Potency | activity change, negative = inhibition |
| --- | --- | --- |
| O=C(O)c1cc(N2N=C(C(F)(F)F)/C(=C/C=C/c3ccco3)C2=O)ccc1Cl | inconclusive: 63.1 µM [inhibitor, partial curve] | – |
| O=C(N/N=C/c1cccs1)c1n[nH]c2c1CCCC2 | inconclusive: 15.8 µM [quencher, side channel, partial curve] | – |
| CC(C)Nc1cc(N2CCCC2)ccc1[N+](=O)[O-] | inconclusive: 10 µM [quencher, side channel, partial curve] | – |
| CCN1CCN(C(=S)Nc2ccc([N+](=O)[O-])cc2)CC1 | inconclusive: 14.1 µM [quencher, side channel, partial curve] | – |
| COc1ccc(OC)c(-c2csc(NC(=O)Cc3ccccc3OC)n2)c1 | – | inactive: -2.42% |
| CCOCCCNC(=O)C(Cc1ccccc1)NS(=O)(=O)c1cccc2nsnc12 (centres undefined) | inconclusive: 12.6 µM [quencher, partial curve] | – |
| O=C(O)c1cc(N2C(=O)C3C4C=CC(C4)C3C2=O)ccc1NCc1cccnc1 (centres undefined) | – | inactive: -22.3% |
| Cc1cccc(C(=O)Nc2cccc(C(=O)N/N=C/c3ccc4c(c3)OCO4)c2)c1 | inconclusive: 15.8 µM [quencher, side channel, partial curve] | – |
| CCOC(=O)c1cc(-c2ccccc2)sc1NC(=O)COC | – | inactive: 106% |
| CC(C)(C)c1ccc(S(=O)(=O)N2CCC(c3nc4ccc(Cl)cc4[nH]3)CC2)cc1 | inconclusive: 50.1 µM [inhibitor, single point] | – |
| O=[N+]([O-])c1ccc2[nH]c3nc4ccccc4nc3c2c1 | inconclusive: 1.58 µM [quencher, side channel, full curve, poor fit] | – |
| CCCOP(=O)(OCCC)c1c([N+](=O)[O-])cc(C(F)(F)F)cc1[N+](=O)[O-] | inconclusive: 25.1 µM [quencher, side channel, partial curve] | – |
| Fc1ccc(-c2csc(/C=C/c3ccc4c(c3)OCO4)n2)cc1 | inconclusive: 100 µM [fluorescent, side channel, partial curve, poor fit] | – |
| CCOc1ccc(CCNC(=O)CCc2nc(-c3ccc(OC)cc3)no2)cc1OCC | – | inactive: -0.293% |
| O=C1c2ccccc2C(=O)N1c1cccc2ccccc12 | inconclusive: 35.5 µM [quencher, side channel, single point] | – |
| COc1ccc(-n2c(SCC(=O)Nc3nc(C)cs3)nnc2-c2ccoc2C)cc1 | inconclusive: 79.4 µM [inhibitor, partial curve, poor fit] | – |
| COc1ccc(-n2c(SCC(=O)N3CCN(c4ccccc4)CC3)nc3c(c2=O)SCC3)cc1 | inconclusive: 17.8 µM [quencher, side channel, partial curve] | – |
| Nc1nnnn1/N=C/c1ccc(N2CCCCC2)c([N+](=O)[O-])c1 | inconclusive: 10 µM [quencher, side channel, partial curve] | – |
| O=C(NNc1c2ccccc2nc2ccccc12)c1ccccc1Cl | – | inactive: 23.3% |
